# Test results taken from the supplement of paper PMC3334620.
# The full ranking holds about 33,000 sequences; the median of “E-score (-0.5 to 0.5)” is about -0.012, and the highest 2% start at about 0.27. The list shows a part of the results.
# Biological target: T1, Vhr1 (UniProt P40522)
# T1 sequence: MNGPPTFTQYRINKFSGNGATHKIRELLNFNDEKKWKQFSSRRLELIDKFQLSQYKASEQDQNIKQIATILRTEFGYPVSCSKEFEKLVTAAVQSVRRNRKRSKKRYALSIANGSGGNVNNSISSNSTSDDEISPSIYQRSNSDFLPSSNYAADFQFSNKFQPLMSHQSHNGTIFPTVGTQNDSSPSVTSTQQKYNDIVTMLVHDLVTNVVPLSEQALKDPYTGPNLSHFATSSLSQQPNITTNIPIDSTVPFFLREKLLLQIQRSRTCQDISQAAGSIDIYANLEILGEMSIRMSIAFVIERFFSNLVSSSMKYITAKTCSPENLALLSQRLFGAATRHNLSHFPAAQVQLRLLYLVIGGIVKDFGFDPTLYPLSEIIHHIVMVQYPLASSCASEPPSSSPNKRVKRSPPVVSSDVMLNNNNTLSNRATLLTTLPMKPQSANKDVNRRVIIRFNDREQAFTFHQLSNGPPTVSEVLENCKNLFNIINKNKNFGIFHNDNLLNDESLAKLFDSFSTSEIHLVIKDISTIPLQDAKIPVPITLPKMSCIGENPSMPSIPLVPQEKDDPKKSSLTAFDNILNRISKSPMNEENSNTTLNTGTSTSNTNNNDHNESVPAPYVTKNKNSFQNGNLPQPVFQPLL
# Assay: PBM E-score (8-mer binding enrichment) (E-score (-0.5 to 0.5)); higher = stronger / more preferred TF binding; most listed sequences are background and not binding sites
# Conditions: protein concentration: 200 nM; construct: GST-full length
# Method in brief: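 For each ungapped eight-base word taken together with its reverse complement, the Universal PBM Analysis Suite assigned an E-score. Binding data came from GST-tagged yeast transcription factors, applied at about 100-200 nM, on universal all-10-mer Agilent arrays made double-stranded by primer extension. Fluorescent anti-GST marked bound protein, and scans were normalised with masliner.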
row,Sequence,PBM E-score
1,CTAGCAAA,0.00326
2,AAGGAGAT,-0.0121
3,AATATCAT,0.208
4,TCCACAAA,-0.124
5,ACTCAACT,0.141
6,AATCCTAA,-0.00704
7,AGACAGTA,0.0953
8,AGGGGTAG,-0.00777
9,GATTTTCA,-0.158
10,GAAAGCTA,-0.131
11,AACGTCTG,-0.0772
12,AGTAAACT,0.0362
13,AAATAGGT,0.0511
14,GCGGACGA,-0.029
15,ACCTGAAG,-0.228
16,AGCGCGTA,0.0158
17,TGCATACA,0.13
18,CGGTACTA,-0.0942
19,GTAGTCTA,0.129
20,CTACTAAG,-0.074
21,ATCCCGAA,0.112
22,TAAATTGA,0.0232
23,AATGTTCT,-0.191
24,AGAGCATG,0.0582
25,AATCGTTG,0.105

row,Sequence,PBM E-score
1,AGAGGGAA,-0.305
2,CCGCAACC,0.0158
3,AAGTCATG,0.41
4,CACTGAGA,0.00705
5,AAATGAGA,-0.186
6,ACACATTC,0.205
7,CGGCAGAG,-0.137
8,GGATGATA,0.0626
9,AACTCTAA,-0.211
10,CTGGCCAG,-0.11
11,CTCTAAAC,-0.268
12,GCGAGCAA,-0.12
13,CATTAGCC,-0.187
14,AGCCGACC,-0.147
15,CCACTGAA,0.0261
16,CGTTGAAA,-0.226
17,ACGAGATG,0.0566
18,ATGCGATG,0.0889
19,GCGTAAAA,-0.0856
20,GCTCTCTA,-0.215
21,TCACCAAA,0.112
22,CTTTTAGC,-0.217
23,AGATCCGA,-0.134
24,CGAGAGCA,-0.031
25,ATTTCCGC,0.0535

row,Sequence,PBM E-score
1,AATTTCCC,-0.306
2,AGACCGGA,0.129
3,ATCCCCTA,-0.161
4,AACCGGTC,-0.109
5,CTTGAAAA,-0.248
6,CAGGCTAA,-0.0406
7,CGAAAACA,-0.0475
8,GTTACCTA,0.0717
9,CGCAAATC,-0.0562
10,AAGCCTGT,0.0771
11,CGACTGTC,0.102
12,CGCCGCAC,-0.128
13,CTGCCACA,-0.0514
14,ACGCTCAA,-0.0768
15,CGCGCCCG,0.0727
16,AGCACAAG,-0.0682
17,CGCCATCA,-0.056
18,GGGGTGTA,-0.111
19,CGGGTTAA,0.0195
20,AGCACCTA,-0.157
21,CATGACGG,0.0327
22,ATAGGTGC,-0.118
23,TCGTAGAA,-0.215
24,AGGCATAG,0.0756
25,CATTACAG,0.132

row,Sequence,PBM E-score
1,CCCCGGCA,-0.129
2,CGAGATAA,-0.0472
3,ATGGAATG,0.0837
4,ACTGTATC,0.0393
5,AACGCACC,0.0152
6,AAAAGGGG,-0.155
7,GGAAATAA,0.0737
8,ATCTTCGC,0.0868
9,ATACAGTC,0.0645
10,TATCCAGA,0.0587
11,CCGGGCCG,0.235
12,ACACATGA,0.213
13,ATAGCGTG,-0.0299
14,ATTGATTC,0.171
15,AAATGGTG,0.201
16,TCAACTGA,0.145
17,AGGATAGC,-0.0939
18,ACCGTCTG,-0.168
19,AACAGAAC,0.0623
20,CACCTTAC,-0.177
21,AGGCTCTG,-0.0502
22,TAGAAGGA,-0.332
23,AAGCAGCC,-0.153
24,GGAAACGA,0.0811
25,AACCGGTT,-0.257

row,Sequence,PBM E-score
1,AATGCCAT,0.0632
2,TCCGCCGA,0.0906
3,AGAATTAA,-0.301
4,AACCGGGT,0.173
5,ACACAGAA,0.117
6,CAGGTCAG,0.0778
7,GCAGGTCA,-0.0243
8,CGTTGAGA,-0.0485
9,ACAACTTG,0.00228
10,AGGCTTTC,-0.0516
11,CCTAATGA,0.148
12,ACTATTGG,-0.0598
13,CTATGTCA,0.0953
14,ACCCTTGC,-0.0167
15,ACACCACA,0.193
16,ACGGCAAC,-0.0167
17,GATTATGC,0.136
18,GATATAAA,-0.0981
19,AAGAACCT,-0.148
20,CCCGAGCG,-0.0759
21,ACGCTCTC,-0.156
22,TCATATGA,0.381
23,GTAATTAA,-0.0531
24,GGTATCTA,-0.00876
25,CTAACGTA,-0.0559

row,Sequence,PBM E-score
1,AGAGTGAC,-0.0526
2,CACGGACG,-0.017
3,CGCTTGCC,-0.273
4,TTAGAGAA,-0.356
5,AGTAAACC,-0.0886
6,CGACGTCA,-0.142
7,CAATTAAA,-0.0545
8,AATTTCCT,-0.0919
9,AGACTATA,0.235
10,CAGGATCC,0.127
11,AATAGTCC,-0.177
12,GAACCCCC,-0.298
13,GGGAGGAC,-0.0865
14,CGGACACA,-0.00066
15,ACCGAAGT,0.0829
16,CCCTCAGA,-0.123
17,ATGCCTCC,-0.185
18,AGTGAGCC,0.221
19,GATCAAAC,-0.00532
20,AGTTGACG,0.047
21,GAAGCCTA,-0.177
22,TCAGCCCA,0.113
23,CATCACTC,0.23
24,GCTTGGCC,-0.0463
25,CTAGAATC,0.0123

row,Sequence,PBM E-score
1,CTGTCACC,-0.195
2,CTTTAAAG,-0.224
3,CATGTCAG,0.0503
4,CCCGTACG,-0.0997
5,ACGACTGG,0.0415
6,CCTGCCTC,-0.188
7,CCTTCAAC,-0.0942
8,CGGGGCAA,0.00278
9,ACACGAAC,0.176
10,CGTTTCAC,-0.184
11,CACTAACA,0.177
12,ATCGTCAT,0.134
13,ACTCGTTA,0.00695
14,AGACAACA,-0.116
15,TCTCTCAA,0.115
16,GGAGCGTA,0.00751
17,ACAAATAT,-0.0219
18,AAACTAAC,-0.0503
19,ATTAGTCC,0.122
20,AAGACACC,0.145
21,GATGCGCA,-0.0162
22,GGCGGTAC,0.0495
